Laboratory results from paper PMC2792886 (Journal of molecular biology, 2009).

B1: BirA R116A (enzyme)
chain: not shown
B2: BirA K122A (enzyme)
chain: not shown
B3: BirA R212A (enzyme)
chain: not shown
B4: BirA R213A (enzyme)
chain: not shown

Target: the molecule itself
Experiment: AUC

Compared with B1, B2 is 4.2-fold higher in Kd: 5 µM for the first, 21 µM for the second. The first binds more tightly here.

Compared with B3, B4 is 2.1-fold lower in Kd: 15 µM for the first, 7 µM for the second. The second binds more tightly here.
